Data as given in PubChem BioAssay (NCATS).
The inconclusive results got no clear call from the source; some entries with a clear call stand among them for comparison. No potency is given beside an inconclusive call; the fits are too rough. Activity calls are given as the source filed them. Calls follow the shape of the dose curve; as a rule, active = well fitted inhibition curve with a large enough effect; inconclusive = small, poorly fitted or top-dose-only effect; inactive = flat fitted curve, though single readings scatter.
Potency is read from the fitted curve at half-maximal effect; tags tell the direction and shape of the fitted curve.

Each compound was assayed on Zika virus NS2B-NS3 protease (assay: Primary screen GU AMC qHTS for Zika virus inhibitors (AID 1347154; also: nearly all actives have a fitted effect of over 70% in size;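 as to activity change, negative = inhibition: 0% = no-inhibitor control and -100% = no-enzyme control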)). Settings: Zika NS2B-NS3 unlinked protease, AMC fluorogenic substrate; series mostly up to 54.1 µM; activity change, negative = inhibition: at the top concentration.
In short: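 Fluorogenic AMC-substrate cleavage by noncovalent NS2B-NS3 protease complex (25 nM, pH 8.0 Tris buffer with Tween 20) followed for 15 minutes at room temperature (~20% conversion). Percent inhibition from ex340/em450 signal change, fitted by 4-parameter Hill equation.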
`O=C(NNC(=O)c1ccc(CNS(=O)(=O)c2ccc(F)c(Cl)c2)cc1)c1ccccc1` was tested, and the Potency was inconclusive [inhibitor, partial curve, poor fit].
For `CC(=C(CCOC(=O)C(C)C)SSC(CCOC(=O)C(C)C)=C(C)N(C=O)Cc1cnc(C)nc1N)N(C=O)Cc1cnc(C)nc1N`, the Potency was inconclusive [inhibitor, partial curve, poor fit].
For `CCCCC(CC)COC(=O)C(C#N)=C(c1ccccc1)c1ccccc1` (stereo not given), the Potency was inconclusive [inhibitor, partial curve].
With `c1ccc2sc(SN3CCOCC3)nc2c1` the “activity change, negative = inhibition” value was inactive: -8.6%.
In the case of `C[C@@H](O[C@H]1OCCN(Cc2n[nH]c(=O)[nH]2)[C@@H]1c1ccc(F)cc1)c1cc(C(F)(F)F)cc(C(F)(F)F)c1`, the Potency is reported as inconclusive [inhibitor, partial curve, poor fit].
